Over roughly 33,000 sequences, “E-score (-0.5 to 0.5)” has its median near -0.035; the highest 2% begin near 0.34. The list shows a part of the results.

This assay deals with T1, Mot3 (UniProt P54785).
T1 sequence: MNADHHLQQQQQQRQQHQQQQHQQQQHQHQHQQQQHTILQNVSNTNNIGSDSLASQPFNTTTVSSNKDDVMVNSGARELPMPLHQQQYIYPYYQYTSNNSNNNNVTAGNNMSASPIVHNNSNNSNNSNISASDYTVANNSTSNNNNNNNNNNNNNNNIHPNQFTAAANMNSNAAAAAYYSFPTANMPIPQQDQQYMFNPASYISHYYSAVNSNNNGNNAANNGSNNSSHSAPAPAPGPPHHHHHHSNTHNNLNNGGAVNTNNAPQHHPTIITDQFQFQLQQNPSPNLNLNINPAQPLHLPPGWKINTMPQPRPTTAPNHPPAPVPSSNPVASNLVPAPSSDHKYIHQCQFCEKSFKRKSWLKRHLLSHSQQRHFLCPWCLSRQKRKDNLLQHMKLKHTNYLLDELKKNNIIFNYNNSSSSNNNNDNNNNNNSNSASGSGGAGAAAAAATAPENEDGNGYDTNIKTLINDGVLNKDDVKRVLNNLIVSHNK
Nature of the assay: PBM E-score (8-mer binding enrichment) (E-score (-0.5 to 0.5)); higher = stronger / more preferred TF binding; most listed sequences are background and not binding sites. To be noted: protein concentration: 200 nM; construct: GST-full length. Put shortly: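 E-scores (a modified Wilcoxon-Mann-Whitney statistic) were assigned by the Universal PBM Analysis Suite to every ungapped eight-base word pooled with its reverse complement. The input came from universal all-10-mer Agilent arrays made double-stranded by primer extension and probed with GST-tagged yeast transcription factors at about 100-200 nM. Fluorescent anti-GST detected bound protein, and masliner normalised the scans.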
Turning to AAGCAGCC, the “PBM E-score” value was -0.232.

For the sequence CGGCAGAG, the “PBM E-score” value is -0.31.

Take ACACATTC: the “PBM E-score” value stood at 0.183.

Consider CACTGAGA, for which the “PBM E-score” value is -0.0286.

Consider AAATGAGA, for which the “PBM E-score” value was 0.0841.

With AAGTCATG, the “PBM E-score” value was found to be 0.0606.

As for CCGCAACC, the “PBM E-score” value was -0.164.

For the sequence AGAGGGAA, the “PBM E-score” value is -0.151.

For AATCGTTG, the “PBM E-score” value came out at 0.204.

Consider AGAGCATG, for which the “PBM E-score” value is 0.0764.

With AATGTTCT, the “PBM E-score” value is 0.0772.

ATCCCGAA: the “PBM E-score” value is -0.164.

Regarding TAAATTGA, the “PBM E-score” value turned out to be 0.153.

Turning to GTAGTCTA, the “PBM E-score” value amounted to 0.0825.

As for CTACTAAG, the “PBM E-score” value is -0.123.

In the case of TGCATACA, the “PBM E-score” value is 0.182.

As to CGGTACTA, the “PBM E-score” value is -0.28.

Regarding ACCTGAAG, the “PBM E-score” value is -0.135.

Regarding GCGGACGA, the “PBM E-score” value was -0.0883.

In the case of AGCGCGTA, the “PBM E-score” value worked out at 0.31.

Consider AAATAGGT, for which the “PBM E-score” value stood at 0.249.

On to AGTAAACT, for which the “PBM E-score” value was found to be 0.0571.

With CGCGCCCG, the “PBM E-score” value is -0.216.

ACGCTCAA: the “PBM E-score” value was determined as 0.121.

As to AGCACAAG, the “PBM E-score” value stood at 0.0406.

In the case of CTGCCACA, the “PBM E-score” value was -0.13.

Consider AAGCCTGT, for which the “PBM E-score” value came out at 0.159.

As for CGACTGTC, the “PBM E-score” value is -0.211.

With CGCCGCAC, the “PBM E-score” value was -0.11.

CGCAAATC: the “PBM E-score” value was -0.158.

With CGAAAACA, the “PBM E-score” value came to 0.124.

Turning to CAGGCTAA, the “PBM E-score” value was found to be 0.0181.

As for GTTACCTA, the “PBM E-score” value came to 0.369.

Consider AACCGGTC, for which the “PBM E-score” value was -0.137.

Regarding CTTGAAAA, the “PBM E-score” value stood at 0.0204.

For AATTTCCC, the “PBM E-score” value is -0.164.

Take ATCCCCTA: the “PBM E-score” value was -0.2.

In the case of AGACCGGA, the “PBM E-score” value was -0.194.

As to CGAGAGCA, the “PBM E-score” value is -0.162.

In the case of ATTTCCGC, the “PBM E-score” value is -0.0932.

AGATCCGA: the “PBM E-score” value is -0.215.

CTTTTAGC: the “PBM E-score” value was -0.0495.

On to TCACCAAA, for which the “PBM E-score” value came out at 0.085.

For ACGAGATG, the “PBM E-score” value was -0.177.

Consider ATGCGATG, for which the “PBM E-score” value is -0.0819.

GCGTAAAA: the “PBM E-score” value stood at 0.314.

Take GCTCTCTA: the “PBM E-score” value was -0.159.

As to CGTTGAAA, the “PBM E-score” value stood at 0.198.

With CCACTGAA, the “PBM E-score” value is -0.0462.

For the sequence CATTAGCC, the “PBM E-score” value was -0.184.

As for AGCCGACC, the “PBM E-score” value is -0.272.

As to GCGAGCAA, the “PBM E-score” value was -0.359.

Turning to CTCTAAAC, the “PBM E-score” value is -0.0173.

Take CTGGCCAG: the “PBM E-score” value is -0.208.

As to AACTCTAA, the “PBM E-score” value is -0.0907.

On to GGATGATA, for which the “PBM E-score” value was -0.0516.

For CTGGACAG, the “PBM E-score” value is -0.166.

On to CCAATAGC, for which the “PBM E-score” value is -0.232.

In the case of CACACCTC, the “PBM E-score” value was -0.19.

As for ATTAATTG, the “PBM E-score” value was determined as 0.0309.

ACGTTCCC: the “PBM E-score” value was -0.216.

With ATTTTAGG, the “PBM E-score” value was determined as 0.193.

Consider AAACGATA, for which the “PBM E-score” value was determined as 0.145.

Consider AGAATCTA, for which the “PBM E-score” value was determined as 0.0701.

Regarding AACTTGTG, the “PBM E-score” value was determined as 0.104.

As for CGTCCAAA, the “PBM E-score” value was -0.153.

Turning to ATGGGAAG, the “PBM E-score” value was -0.203.

ATATGTTA: the “PBM E-score” value was found to be 0.284.

As to TACCCTGA, the “PBM E-score” value is -0.109.

Regarding CTGACGAC, the “PBM E-score” value was -0.00982.

As for CTTGCAAG, the “PBM E-score” value is -0.102.

As to ATAGCGTA, the “PBM E-score” value was found to be 0.0277.

Take AATGAGGA: the “PBM E-score” value was -0.0696.

Regarding ACAGCATC, the “PBM E-score” value was -0.00926.

Consider AAACACAA, for which the “PBM E-score” value is 0.253.

As to GTGCCCGA, the “PBM E-score” value was determined as 0.245.

With AAGTACTG, the “PBM E-score” value is -0.0249.

In the case of ACACGCCG, the “PBM E-score” value is 0.18.

Take ACATCCCG: the “PBM E-score” value came to 0.0391.

Consider AGACGCGA, for which the “PBM E-score” value came out at 0.0228.

CTTGCGTA: the “PBM E-score” value was 0.18.

ACTTGTCA: the “PBM E-score” value is 0.157.

Take CACCGACA: the “PBM E-score” value was -0.112.

For the sequence AGAGTGAG, the “PBM E-score” value was -0.00422.

On to CGGAGGAC, for which the “PBM E-score” value was -0.284.

On to AACGGGTA, for which the “PBM E-score” value worked out at 0.176.

For the origin of these results see the supplement of paper PMC3334620.
